Laboratory results taken from the supplement of paper PMC11417369.
± gives the standard deviation of the averaged measurements. Some of the results follow.

Each sequence was assayed on PfAP2-I AP2 domain 3 (GST-tagged) (assay: gcPBM binding intensity (ln(normalized median fluorescence intensity)); higher = stronger DNA binding).
Outline: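 The binding buffer was 1× PBS containing 1% milk, 0.2 mg/ml BSA, 0.5% salmon testes DNA and 0.03% Triton X-100. In it, GST-tagged P. falciparum DNA-binding domains expressed in E. coli were applied for 1 h to an Agilent 4 × 180k array of primer-extended double-stranded 36-bp intergenic genomic probes plus negative controls. Binding intensity, read with Alexa488 anti-GST antibody and a 488 nm scan, is the highest Masliner-normalised natural-log median intensity across replicate spots of either probe orientation.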

Q: How did the “gcPBM binding intensity (ln)” value turn out when “TGTAGTCTGGAGAAACGTACACAGTATCTGGTAACA [XGTACX_site4938]” was run?
A: 7.62 ± 0.42

Q: With “TATTTATTACTATGTAAACACACATGCAATATATGT [CACACA_site8288]” as the sequence, how does the “gcPBM binding intensity (ln)” value read?
A: 7.8 ± 0.61

Q: For “ATATTTAAAGAATAAGTGCAAAATGTAATTAATTTT [GTGCAC_site9901]”, which “gcPBM binding intensity (ln)” value is on record?
A: 10 ± 0.29

Q: For “TATATTTTATAAAAAAGTACACATGAAAATGTATTT [XGTACX_site5889]”, which “gcPBM binding intensity (ln)” value is on record?
A: 7.79 ± 0.42

Q: With “AAATTTTATTATAGCAGTACAATATAATATTATTAA [XGTACX_site1971]” as the sequence, how does the “gcPBM binding intensity (ln)” value read?
A: 7.82 ± 0.22

Q: How did the “gcPBM binding intensity (ln)” value turn out when “TTTTTTCCTTTTAATTGTACACAGATATAATATATT [XGTACX_site2230]” was run?
A: 8.03 ± 0.4

Q: How did the “gcPBM binding intensity (ln)” value turn out when “AAATATTTTTTTTCTACACACATACAAATATAGATT [CACACA_site7164]” was run?
A: 7.89 ± 0.79

Q: “ATGCCCCATATAAACACACAAATAAAAAGAATATAC [CACACA_site7292]” was tested. Which “gcPBM binding intensity (ln)” value did it give?
A: 8.26 ± 0.64

Q: Which “gcPBM binding intensity (ln)” value does the source give for “TATCATTTTATTATTCTACACACTTATCTATAATTA [CACACA_site7894]” here?
A: 7.74 ± 0.49

Q: With “TTTTTTTTTTTTTTTGCATGTTGTTTAATGTATTGT [TGCATGCA_site772]” as the sequence, how does the “gcPBM binding intensity (ln)” value read?
A: 8.11 ± 0.59

Q: “AAATAAGAGCGTAGCACACACGCATTTTATAAATGT [CACACA_site741]” was tested. Which “gcPBM binding intensity (ln)” value did it give?
A: 7.58 ± 0.69

Q: Which “gcPBM binding intensity (ln)” value does the source give for “TGTTGATGATATTACACACCCAATGAGAAAAGGAAT [CACACA_site2072]” here?
A: 8.14 ± 0.7

Q: With “TTTTACAAAATAAAAATATAGAATACGGTAAATTAT [GTGCAC_negctrl_site40]” as the sequence, how does the “gcPBM binding intensity (ln)” value read?
A: 7.87 ± 0.73

Q: For “TAAAAATGTGGACACACACACATATTTATATTTAAT [CACACA_site6827]”, which “gcPBM binding intensity (ln)” value is on record?
A: 7.81 ± 0.18

Q: How did the “gcPBM binding intensity (ln)” value turn out when “AAAAAAAAAAAAAGTACACACTTTTGCGTACATGTA [CACACA_site7449]” was run?
A: 8.06 ± 0.63

Q: How did the “gcPBM binding intensity (ln)” value turn out when “AAAAAGTAGTAAAACAGTACAGTATTTATGCCTATT [XGTACX_site6434]” was run?
A: 7.79 ± 0.59

Q: For “AATATATTTTTCTACCGTACATAATAAAATATATAT [XGTACX_site1777]”, which “gcPBM binding intensity (ln)” value is on record?
A: 7.95 ± 0.51

Q: How did the “gcPBM binding intensity (ln)” value turn out when “TATTTATTTATTTATTGTACATAAGTATATATTATA [XGTACX_site6566]” was run?
A: 7.91 ± 0.72

Q: How did the “gcPBM binding intensity (ln)” value turn out when “GAACCACTAAAATGAGCATGCTCATATTTACATATA [TGCATGCA_site1033]” was run?
A: 7.68 ± 0.64

Q: How did the “gcPBM binding intensity (ln)” value turn out when “ATTACATACACGCGCACACACAAAAAAAAAAAAAAA [CACACA_site1334]” was run?
A: 8.39 ± 0.13

Q: How did the “gcPBM binding intensity (ln)” value turn out when “GTACTCTTCTCCAGACTGCACTATACGACTCGTACA [GTGCAC_site9770]” was run?
A: 9.865 ± 0.049

Q: Which “gcPBM binding intensity (ln)” value does the source give for “ATATATATATATATATGTACTTATATATAATATAGA [XGTACX_site3488]” here?
A: 9.05 ± 0.28

Q: How did the “gcPBM binding intensity (ln)” value turn out when “TGGTATGTTTTACAAAGTACCCATCGATTCTTATGT [XGTACX_site2822]” was run?
A: 7.74 ± 0.57

Q: “AAAAAAACATGAAACACACACAAATATTTATTTATA [CACACA_site6967]” was tested. Which “gcPBM binding intensity (ln)” value did it give?
A: 7.55 ± 0.52

Q: How did the “gcPBM binding intensity (ln)” value turn out when “TGTTTCCAAAAAAAAAAAAAAAAAAAAAAAAAAAAA [CACACA_negctrl_site358]” was run?
A: 8.31 ± 0.71

Q: With “TATTATATATATAAATGTACTTATTTTAATTCCCCT [XGTACX_site8638]” as the sequence, how does the “gcPBM binding intensity (ln)” value read?
A: 8.005 ± 0.049

Q: How did the “gcPBM binding intensity (ln)” value turn out when “TTTTGTTTATTATGATTCAAAATGATTTTATCTTTG [TGCATGCA_negctrl_site425]” was run?
A: 7.38 ± 0.67

Q: For “AATAAATAAGCAACATGTACATACAAATATATACAT [XGTACX_site8529]”, which “gcPBM binding intensity (ln)” value is on record?
A: 7.7 ± 0.28

Q: Which “gcPBM binding intensity (ln)” value does the source give for “TTTAATTTTTTTAATTCACACATTATTCCATCCTTT [CACACA_site5480]” here?
A: 7.71 ± 0.52

Q: “ATCTAATAAAAATACACACACATATGATTTGTGAAT [CACACA_site1867]” was tested. Which “gcPBM binding intensity (ln)” value did it give?
A: 7.5 ± 0.4

Q: How did the “gcPBM binding intensity (ln)” value turn out when “ATTTTCCATTGTGCTACACACAACGGTTCGCAATAA [CACACA_site2974]” was run?
A: 8.17 ± 0.59

Q: “TAAAAAAAATAGTCAAGTACATAAGAAGGGAAGAAA [XGTACX_site8733]” was tested. Which “gcPBM binding intensity (ln)” value did it give?
A: 7.88 ± 0.59

Q: “ACTAAAAGATATATAATTTCTTTCTTATTTATTTTT [CACACA_negctrl_site842]” was tested. Which “gcPBM binding intensity (ln)” value did it give?
A: 7.43 ± 0.56

Q: For “TTATTCATATTATCATGTACTTATATATATTGTCAT [XGTACX_site2231]”, which “gcPBM binding intensity (ln)” value is on record?
A: 7.72 ± 0.55

Q: For “AAAAATTTAAGTGGGGGTACATTTTTTTAACACCTT [XGTACX_site1093]”, which “gcPBM binding intensity (ln)” value is on record?
A: 8.65 ± 0.35

Q: Which “gcPBM binding intensity (ln)” value does the source give for “AACAAACACGGACACACACACACACTAGAATGATTA [CACACA_site5364]” here?
A: 8.14 ± 0.28

Q: “ATATTTAAATGTAATACATGCAAATTTGAACATTTT [TGCATGCA_site736]” was tested. Which “gcPBM binding intensity (ln)” value did it give?
A: 7.97 ± 0.68

Q: With “TAATATATTAACATGGGTACATATTATTTCATGTGT [XGTACX_site5985]” as the sequence, how does the “gcPBM binding intensity (ln)” value read?
A: 7.71 ± 0.33

Q: “AAAAAAAAAAAAATCACACATATGTATTTATATATA [CACACA_site5790]” was tested. Which “gcPBM binding intensity (ln)” value did it give?
A: 7.51 ± 0.34

Q: “CACATATATATGTGTGCATGTTGTATTATATATTTA [TGCATGCA_site632]” was tested. Which “gcPBM binding intensity (ln)” value did it give?
A: 8.69 ± 0.46

Q: “ATAATTACAAAATAAACACACATATAGATTTATATG [CACACA_site6343]” was tested. Which “gcPBM binding intensity (ln)” value did it give?
A: 7.6 ± 0.45

Q: “TACATAATACATATAACACACACAATTATACATAAA [CACACA_site9060]” was tested. Which “gcPBM binding intensity (ln)” value did it give?
A: 7.92 ± 0.36

Q: Which “gcPBM binding intensity (ln)” value does the source give for “ATATAATTAAAATGCTCACACACATAAAAAAAAATT [CACACA_site2148]” here?
A: 7.74 ± 0.51

Q: How did the “gcPBM binding intensity (ln)” value turn out when “GTACATATATACATTACACACGGTTTGATTTAAAAA [CACACA_site3379]” was run?
A: 7.96 ± 0.59
